Assay results from the RNAGym collection of RNA variant scans (doi:10.7554/elife.90254).
Read counts are not given, so values of variants with three or more changes are uncertain.

B1: LINE1-mini (parent)
chain: GGCAGAGCUCAACACAGCGUGGCAAAGUGGCUGUGGCUAGACUGCC

Variants of: B1
Assay: self-cleavage, relative activity (ratio to wild type); higher = more cleavage; in vitro, sequencing; the parent is a self-cleaving ribozyme

Row | Variant | self-cleavage
1 | U9C G35A C45U | 0.03
2 | A16G A24C C31G U32C G40A | 0.03
3 | C10U A12G G19A G35U C45U | 0
4 | G2A A6C C18A G22C A24U | 0.02
5 | C8U U34G G35C | 0.06
6 | C3G G7A A12U A14U A25G | 0.1
7 | G5U C8A G29U G35U | 0.38
8 | C3A C15A G30U | 0.31
9 | A11U G29C C46A | 0.05
10 | C3G G17C G36U | 0.13
11 | G2U A11C G22C A24C | 0
12 | A25U G30U C31A G35U C42A | 0.03
13 | C3A A16C A24G U32A C37G | 0.1
14 | G19U G22U G27U | 0.13
15 | G2C C13A A14C U28C G29A U43A | 0.02
16 | C13G G30U U34A | 0.05
17 | C8A U9G C23A G40U | 0.03
18 | C3G C8A C13U C18A G22A U28A G44C | 0.19
19 | C3A G5A C42U U43A | 0.52
20 | A6U G36A U38A G40C | 0.05
21 | A12G G21A U28C U38G A41G | 0
22 | C3A G21U C23U C46U | 0.43
23 | C15U G19C G27U C31A U34A A39C | 0.14
24 | C8U A16G G22A U28A | 0.07

Row | Variant | self-cleavage
25 | A6G C37G U38G C42A | 0.01
26 | A14G G17C G27U U34G | 0.03
27 | C10A G17A G33U U34C | 0.01
28 | C10U C13U G29U | 0.07
29 | A4U U32G C37G | 0.02
30 | A4C C18U C31U G36C C37G | 0.08
31 | G27A U32C C42U | 0.04
32 | G17C A41C C42U | 0.13
33 | G2C G5A C10G G21A C42A | 0.02
34 | C18U C23U A39G U43C | 0.04
35 | C10A A14G A16G C18A A24U G30U | 0.02
36 | A16U G29U G30U C46A | 0.22
37 | G5C U9G A14G G19U G36A | 0.04
38 | A25G C31G C46U | 0.05
39 | C8G U20G G33U | 0.02
40 | C3G C15A C42A U43G | 0.12
41 | G2U C8G A11C G33C G35A | 0
42 | G19U U20A A39C | 0.03
43 | A6G C8U A14G | 0.15
44 | C15A A25U G27A A39G | 0.03
45 | G1U G2U A4G G7C G17A C31A C45A C46G | 0.01
46 | A14C C23U G27U G44U | 0.04
47 | C3G A4G C8A U9A G17C U20A G29C G30A A41U | 0.06
48 | C8A C18U C31U | 0.06

Row | Variant | self-cleavage
49 | G2C C10U A11G | 0.02
50 | G2U C3A G22U | 0.46
51 | A6C U32G U38C | 0.01
52 | C13U C15G U43C | 0.03
53 | G17C G22U G36C | 0.02
54 | C8A G40U C45A | 0.16
55 | A4C G5A G36U | 0.05
56 | G2U G5U A25U C37U | 0.02
57 | U20C C31U C42U | 0.13
58 | G2A C15A G17U | 0.12
59 | A12C C18U G21C C31U | 0.01
60 | C15G A16U C18A C31A U38G | 0.04
61 | C31U U34A G35C | 0.02
62 | C3G C10G C13G A14U G22C | 0.02
63 | A16C A26C G33A C45U | 0.03
64 | G22U G27A G33C G36C | 0.05
65 | C10A A12C U43C | 0.01
66 | C15G A24U A39C | 0.03
67 | G22A A24C G33U C42G C46U | 0.14
68 | G2U A6C G36U A39G G40U | 0.03
69 | C3U A4U C23A | 0.06
70 | G17A C31G C37G | 0.01
71 | A6G C18A U28G U38C A39U | 0.09
72 | A14G G44C C46G | 0.03

Row | Variant | self-cleavage
73 | C10A C15U U38C A41C | 0.01
74 | G1C G5U A26U G30A A41C | 0
75 | A4C U20C G30A G35U | 0.03
76 | G22A G27U C42U | 0.26
77 | A16G G29A C37U C42A | 0.01
78 | C15U G17U A24C | 0.05
79 | A14G G40A C42G | 0.06
80 | A4C C10A C15G | 0.05
81 | G1C G22A G29U U32C C37G | 0.02
82 | C8A G27C A41G | 0.02
83 | G1U C10U G17U G36U C42U | 0.01
84 | A12G U38G G40U | 0.05
85 | A4C U9G A39C | 0.03
86 | C3A A12G C18G C42G | 0.02
87 | G2C C8U C37A C45U | 0.05
88 | G17A A26U G35A U43A | 0.05
89 | U9C C10A C13G C15A U32C G40U C46G | 0.02
90 | A6G C8A G33U | 0.21
91 | C8A G22A U28G A39U G44C | 0.03
92 | G7U G22U C23A | 0.04
93 | A6C C15U G17A U20A C31U G33U | 0.11
94 | G5U A6G A11C G22A | 0.01
95 | U9G A12G A24U G40U | 0.01
96 | G5U G36A G40U | 0.49

Row | Variant | self-cleavage
97 | A4C A6C C15G C18G C23A A25U A26G G35C | 0.06
98 | C23U U43A C45G | 0.04
99 | U34A G35U G36U C37U A39U | 0.03
100 | G1U A12G G17C C18A C45A | 0
101 | G5A A16C G22A | 0.06
102 | C10A G30A G40C C46U | 0.01
103 | A14C A16G G30U U34A C42A | 0.08
104 | G21U U34G U43A | 0.01
105 | G17U C18G G21U U38A G44U | 0.16
106 | U9A G30U G36U C42U G44U | 0.18
107 | G5A C8U U9C C37U | 0.03
108 | A16U G36C G40U | 0.02
109 | G17U U20A G33U U34C | 0.04
110 | C3G A6C G22C C37U | 0.11
111 | C15A A16G A26U U32G | 0.04
112 | C13A A16C G35A | 0.05
113 | G5U A11G U20G C42A | 0
114 | G2U G5C A11C A24G C37A C42U | 0
115 | A6U C8G A24U | 0.12
116 | G1U U20A A25U | 0.2
117 | A6U U9A G21U | 0.05
118 | C8U A14U C18A U34A G36A U38C | 0.04
119 | A6C A16U U20C G33U | 0.04
120 | C15U G22A A26U A39C G44C | 0.05

Row | Variant | self-cleavage
121 | C3G G7U G27U | 0.17
122 | C23G A26C A41C C45U | 0.05
123 | G1U G27C C31A G33A | 0.03
124 | G1U C3U G7U G33U G44A | 0.22
125 | A14U A25U C46A | 0.11
126 | A12G C18G U20C | 0.01
127 | A12G U43C G44U | 0.03
128 | G5U G22A G27C U34C C42G | 0.05
129 | G1C C23G A25U U34C C46A | 0.02
130 | C10U U34C A39C | 0.04
131 | A6G A26G C37U C46G | 0
132 | G5A A6U C15A G17C G22U A25G | 0.03
133 | G5C A11C G40C | 0.03
134 | A26C U34A G36A C46A | 0.03
135 | A11C U34G C37A | 0
136 | G7A C8U U9C A39C | 0.96
137 | C3A A11U C23G A39C C46U | 0.01
138 | A4G U34A G44C | 0.08
139 | G21U G22A A24G U28G G29U U38C | 0.35
140 | G1C U9G U20A A25U G33A G35A G36A G44C | 0
141 | A11U A14G C42G | 0
142 | G7A A12C C13G G27C G30U G36C C45U | 0.01
143 | C3A C10A C37U | 0.03
144 | C3G A6U G36C U38C | 0.14

Row | Variant | self-cleavage
145 | G19U G21A A26U G29U A41G | 0.49
146 | G21C G36U C45A | 0.03
147 | C3U C31A G33U | 0.06
148 | G21U A41U C46U | 0.16
149 | G7A A12U A26U | 0.27
150 | G5C G17C A24U G27C | 0.01
151 | G2C A6U A25C U28G G40A | 0.25
152 | G1C G29U G40C | 0.04
153 | C18G G22A A24U C42A | 0.23
154 | C31G G36A C37A | 0.03
155 | G1C U9G C15U G30C C42G | 0.01
156 | U9A C18U G36C | 0.03
157 | A16U A26G G40U | 0.03
158 | G1U G2C C3A G17A A25G U38G C42G | 0.13
159 | G2U C10A G29C | 0.01
160 | G21C G30A A39U | 1.61
161 | A14C C15G G19U | 0.08
162 | G2U A4C U9G A14G C15A G36A | 0.02
163 | C8A C10U G19C U32C | 0.06
164 | G2A A25C C46U | 0.49
165 | C10A A11C A14C A39U | 0.01
166 | C3G C31U C42A | 0.06
167 | G7C G21U A39G | 0
